# In the supplement of paper PMC3334620:
# Whole data set: some 33,000 sequences, median “E-score (-0.5 to 0.5)” near -0.032, cut for the highest 2% near 0.36. This is one part of the list.
# Target: T1, Sko1 (UniProt Q02100)
# T1 sequence: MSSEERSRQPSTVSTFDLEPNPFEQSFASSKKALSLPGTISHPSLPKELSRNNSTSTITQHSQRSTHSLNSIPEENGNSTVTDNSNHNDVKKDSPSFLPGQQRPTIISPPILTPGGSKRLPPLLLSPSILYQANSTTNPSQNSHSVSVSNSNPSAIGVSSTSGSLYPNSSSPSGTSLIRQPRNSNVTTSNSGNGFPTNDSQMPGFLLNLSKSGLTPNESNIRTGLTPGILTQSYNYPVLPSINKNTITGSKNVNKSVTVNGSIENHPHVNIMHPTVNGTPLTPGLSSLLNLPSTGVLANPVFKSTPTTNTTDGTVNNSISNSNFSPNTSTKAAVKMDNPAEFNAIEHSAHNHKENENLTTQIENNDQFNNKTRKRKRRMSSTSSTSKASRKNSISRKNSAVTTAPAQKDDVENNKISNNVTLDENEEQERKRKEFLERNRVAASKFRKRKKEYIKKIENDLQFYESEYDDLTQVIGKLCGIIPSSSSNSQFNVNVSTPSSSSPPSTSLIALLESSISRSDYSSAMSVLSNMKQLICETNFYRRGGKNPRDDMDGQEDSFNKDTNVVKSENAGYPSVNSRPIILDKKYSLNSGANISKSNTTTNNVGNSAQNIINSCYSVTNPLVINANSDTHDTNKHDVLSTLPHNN
# Assay: PBM E-score (8-mer binding enrichment) (E-score (-0.5 to 0.5)); higher = stronger / more preferred TF binding; most listed sequences are background and not binding sites
# Conditions: protein concentration: 200 nM; construct: GST-full length
# Outline: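 Detection of bound protein used fluorescent anti-GST, with scans normalised by masliner. The proteins were GST-tagged yeast transcription factors applied at about 100-200 nM to universal all-10-mer Agilent arrays made double-stranded by primer extension. Each ungapped eight-base word, pooled with its reverse complement, was scored with an E-score from the Universal PBM Analysis Suite.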
row,Sequence,PBM E-score
1,ATTTGATA,0.244
2,AGCATACT,-0.0273
3,CCATACTA,0.0804
4,CTCGTACC,0.123
5,ACGTAAGG,0.464
6,GCCTCGAC,-0.3
7,AGTGTCGC,0.0648
8,AGTGGGAG,-0.265
9,ATACACCA,0.105
10,ATAGATAT,0.249
11,ACAACCTG,-0.0223
12,CTACCGAC,-0.143
13,GCCCAGCC,-0.0856
14,AAAACGGT,-0.206
15,ATTTTGAC,0.223
16,ACTGATCC,-0.0676
17,AACCACCC,-0.183
18,GACTATAA,0.0531
19,CAATTACG,0.455
20,AATCACAG,-0.0226
21,CTGAAACC,-0.0578
22,GCAAAACC,-0.0829
23,AAACAAAT,0.161
24,CCCTAGAA,0.0645
25,CAGAACGG,-0.147

row,Sequence,PBM E-score
1,ACACGTAT,0.463
2,CGTCCCGA,-0.123
3,AAGTACCT,-0.0422
4,CGAAATTC,0.0424
5,ACGATCAC,0.0848
6,ATGCTGGC,-0.123
7,CGGAAATA,0.17
8,AACTGCTT,-0.0503
9,AATAGCCC,-0.114
10,ATTGGTTA,0.0772
11,ACGCCGCG,-0.057
12,TACGCGGA,0.211
13,AGAATGTA,0.0954
14,CCCGAACA,-0.247
15,GGTTGCAA,0.0174
16,AGGGCGAT,-0.0344
17,CCATATCC,-0.0784
18,GCCTTCGC,-0.222
19,CGTGCGAA,0.218
20,CAAGGCAA,-0.136
21,GGTACGTA,0.454
22,ACCCAAAA,0.0721
23,ACCCGGCG,-0.201
24,TATATACA,0.226
25,AGCAGACT,-0.00183

row,Sequence,PBM E-score
1,CTATTTCC,0.0516
2,CAGACTGA,-0.0686
3,ACATACGT,0.459
4,CACACCCC,-0.208
5,AGGGGGTG,-0.333
6,ATAGGTCA,0.2
7,GAATTTAC,0.225
8,ACAATGAC,0.276
9,CGCCTGAA,0.00958
10,ACAGGCTG,-0.245
11,GACAAGGC,-0.287
12,ACGGGAAA,-0.0631
13,AATAACTG,0.0824
14,GCTCGAGC,0.0956
15,AAGGTAAA,0.00922
16,ACCATTAT,-0.145
17,CGCGTCGC,-0.0535
18,TGACATAA,0.424
19,AACAATCT,0.0494
20,TATTAACA,0.268
21,AGAAGTGG,-0.19
22,AATGCGAG,0.128
23,AGTCGGTG,-0.312
24,GCACCTAA,0.0769
25,CACGATGG,-0.0649

row,Sequence,PBM E-score
1,ACGCGAAT,0.229
2,GGACTAGA,-0.158
3,AGATGACC,-0.0804
4,ATGAAGGC,-0.0634
5,CTTAACCA,0.0261
6,ACATGTAT,0.273
7,CGCAAGCA,0.0501
8,CGCCCTCA,-0.128
9,TAAACGAA,0.116
10,ACCGCAGG,-0.278
11,AACTTCTT,0.0945
12,AACATAGA,-0.0693
13,CATGTGAC,0.284
14,GTGACAAA,0.167
15,GGACCCGA,-0.329
16,TCGTGAAA,0.0383
17,TAAATACA,0.181
18,AACTCTCG,-0.0804
19,GGACTTTA,-0.102
20,TGTGCTAA,0.106
21,AACCTTAG,-0.0862
22,CAGTTATG,-0.0352
23,AGGCGTCG,-0.142
24,CCCCGCCA,-0.0909
25,AGTATGCG,0.0297

row,Sequence,PBM E-score
1,GCACCCGA,-0.249
2,AACGTGCT,0.0929
3,AAATAATA,0.268
4,AGACTTAT,-0.0312
5,CGGCAGAC,-0.305
6,ACCAACGG,-0.0964
7,AGCGGTTG,-0.0753
8,AGCAGGGG,-0.307
9,ATGGTGCC,-0.206
10,CTGTGCTC,0.0303
11,GAACTCAA,-0.137
12,GAAAGGGA,-0.133
13,GCACTAAC,-0.147
14,AGCGGCTG,-0.175
15,AATTCAGC,-0.0401
16,ATCCTGGC,-0.215
17,AATTTTGT,0.194
18,AGCACGAC,-0.263
19,CACAGTCC,-0.139
20,CCACTGTA,0.0703
21,AATCGGAC,-0.188
22,CAGCGGCA,-0.155
23,AAGTCCAC,-0.188
24,GCGTATCA,0.131
25,ACTGAGCG,-0.15

row,Sequence,PBM E-score
1,GGCGTGAA,0.00549
2,ACCAGTGA,0.0723
3,CTAGCCTC,-0.152
4,GAATTGAA,0.168
5,CGACTTGA,0.0052
6,CACACTAG,-0.0798
7,ACGACGTG,0.365
8,TGACAGCA,0.116
9,GGCTACAA,-0.0783
10,ACGAATGA,0.321
11,GCCTACCC,-0.229
12,ATCGGAAA,0.0215
13,GTTCAAGA,0.0696
14,ATGGAGCA,0.0844
15,GCCCTACC,-0.113
16,CCGCCGTC,-0.0674
17,AACTCCTC,-0.269
18,GCGGCATA,0.0318
19,TACTTACA,0.093
20,TAATGAAA,0.24
21,AGGACATC,-0.0352
22,CAGGCGAG,-0.277
23,ATGGTGGG,-0.311
24,CGCGCAGA,0.152
25,TACGGTGA,0.0938

row,Sequence,PBM E-score
1,AGCGGGCC,-0.0425
2,CGCCCTCC,-0.262
3,GCCAGGGC,-0.337
4,AAGGACTA,-0.145
5,CTCTGCCC,-0.127
6,CTCAGCAG,-0.23
7,CGTTCACA,0.119
8,CCGAACAA,-0.153
9,AAGGTTGA,-0.00502
10,CACCAGGA,-0.114
11,AATCTAGT,0.0628
12,AGGGGGAA,-0.11
13,ACTTCTTC,-0.0455
14,TCAGAAAA,-0.094
15,CCCCTCTA,-0.189
16,CCTGCTGA,-0.0354
17,AAGGTCAC,-0.091
18,AACTACAG,-0.0409
19,GAGCAAGC,-0.124
20,CGTATTAC,0.387
21,GACCCTAA,-0.0869
22,GAGTTTAA,0.0584
